The whole screen tested about 370,000 compounds, of which about 150 (0.041%) were called active. Inconclusive results, whose numbers are uncertain, are shown with a selection of clear calls. Calls come from the whole dose curve; as a rule, active = well fitted inhibition curve with a large enough effect; inconclusive = small, poorly fitted or top-dose-only effect; inactive = flat fitted curve, though single readings scatter. Potencies of inconclusive entries are left out as doubtful fits.
The molecules below were run against Beta-lactamase (Escherichia coli (strain K12)) (UniProt P00811) (assay: qHTS Inhibitors of AmpC Beta-Lactamase (assay with detergent)). Conditions: AmpC hydrolysis of nitrocefin, absorbance 480 nm, 0.01% Triton; series mostly up to 114 µM.
Summary of the method: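 20 mM phosphate pH 7.0 + 0.01% (detergent screen) or 0.0001% Triton X-100; 5.3 nM AmpC reagent; cpd preinc 15 min RT; nitrocefin (800 uM stock) to start; A480 q20 s × 4 min; Activity was normalised to no-enzyme and no-compound control wells.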
Note: nearly all actives have a fitted effect of over 25% in size.
Potency is the fitted concentration of half-maximal effect; tags give direction and shape of the fitted curve.

Sequence of UniProt P00811 (P00811 whole entry, looked up): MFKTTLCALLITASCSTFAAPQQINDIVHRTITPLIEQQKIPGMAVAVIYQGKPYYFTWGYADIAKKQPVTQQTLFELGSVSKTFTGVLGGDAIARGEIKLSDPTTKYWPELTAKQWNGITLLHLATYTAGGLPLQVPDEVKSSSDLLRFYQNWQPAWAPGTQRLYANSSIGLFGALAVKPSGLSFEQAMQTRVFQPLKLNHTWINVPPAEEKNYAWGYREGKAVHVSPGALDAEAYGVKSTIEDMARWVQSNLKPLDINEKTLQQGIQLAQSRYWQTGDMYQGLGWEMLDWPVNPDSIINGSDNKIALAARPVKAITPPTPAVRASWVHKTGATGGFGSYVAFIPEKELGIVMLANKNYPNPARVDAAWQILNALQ

| SMILES | Potency |
| --- | --- |
| CCN(CC)c1ccc(C(=O)N/N=C(\C)c2cccnc2)cc1 | inactive |
| c1n[nH]c(NC2=NCCC2)n1 | inconclusive [inhibitor, full curve] |
| C=CCN1C(=O)/C(=C/c2ccc(O)cc2)S/C1=N/c1nccs1 | inconclusive [inhibitor, full curve, poor fit] |
| COc1cc2[nH]c(=O)n(CCCC(=O)NCCc3ccccc3)c(=O)c2cc1OC | inactive |
| O=C(c1ccc([N+](=O)[O-])cc1)N1CCC(Cc2ccccc2)CC1 | inactive |
| c1cncc(-c2nc(NCc3cccs3)c3ccccc3n2)c1 | inconclusive [inhibitor, partial curve] |
| CC1CCC(NC(=O)c2cc3c(=O)n(C)c4ccccc4c3n2C)CC1 (stereo not given) | inconclusive [inhibitor, partial curve, poor fit] |
| CCCn1c2ccccc2c2nc3ccccc3nc21 | inconclusive [inhibitor, full curve, poor fit] |
| O=C(O)CCS(=O)(=O)c1cc(Br)cc2c1N(C(=O)C1CC1)CC2 | inconclusive [inhibitor, single point] |
| C=CCn1c(SCC(=O)N2CCOCC2)nc(O)cc1=O | inconclusive [inhibitor, partial curve] |
| CCCN(C(=O)CSCc1c(C)noc1C)c1c(N)n(Cc2ccccc2)c(=O)[nH]c1=O | inconclusive [inhibitor, full curve] |
| S=C(Nc1ccccc1)N1CCCCCC1 | inconclusive [inhibitor, full curve, poor fit] |
| Cc1ccc(C(=O)c2sc3c(c2N)c(=O)[nH]c(=O)n3CCc2ccccc2)cc1 | inactive |
| CC(C)C[C@H](NC(=O)Nc1cccc(C(F)(F)F)c1)C(=O)O | inconclusive [inhibitor, partial curve] |
| CC(OC(=O)Cn1[nH]c(=O)c2ccccc2c1=O)C(=O)Nc1ccccc1[N+](=O)[O-] (stereo not given) | inconclusive [inhibitor, full curve, poor fit] |
| CCN(Cc1ccccc1)S(=O)(=O)c1cn(C)cn1 | inactive |
| Cc1ccc(O)c(C(CC(=O)N2CCCC2)c2ccccc2)c1 (stereo not given) | inconclusive [inhibitor, partial curve, poor fit] |
| O=C(NC(N1CCCC1)C(Cl)(Cl)Cl)c1ccccc1 (stereo not given) | inactive |
| CCN1CCN(C(=S)NCCc2ccccc2)CC1 | inconclusive [inhibitor, full curve, poor fit] |
| COc1cc(C)c(N)cc1C(C)C | inconclusive [inhibitor, full curve, poor fit] |

Source: PubChem BioAssay AID485294 (National Center for Advancing Translational Sciences (NCATS), 2010)
